# Measured values: PMC4336329 (PLoS ONE, 2015)
# About 14,000 (4.5%) of roughly 310,000 compounds showed an effect of 50% or more. The effect is printed as a negative number. The list shows a part of the results.
# Biological target: human ether-à-go-go-related gene (hERG) potassium channel (human, UniProt Q12809)
# Experiment: primary screen, population patch clamp on CHO cells stably expressing hERG
# 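Also: peak tail current of the secondary pulse compared with the same well before compound.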
# Sequence of human ether-à-go-go-related gene (hERG) potassium channel (Q12809 whole entry, looked up): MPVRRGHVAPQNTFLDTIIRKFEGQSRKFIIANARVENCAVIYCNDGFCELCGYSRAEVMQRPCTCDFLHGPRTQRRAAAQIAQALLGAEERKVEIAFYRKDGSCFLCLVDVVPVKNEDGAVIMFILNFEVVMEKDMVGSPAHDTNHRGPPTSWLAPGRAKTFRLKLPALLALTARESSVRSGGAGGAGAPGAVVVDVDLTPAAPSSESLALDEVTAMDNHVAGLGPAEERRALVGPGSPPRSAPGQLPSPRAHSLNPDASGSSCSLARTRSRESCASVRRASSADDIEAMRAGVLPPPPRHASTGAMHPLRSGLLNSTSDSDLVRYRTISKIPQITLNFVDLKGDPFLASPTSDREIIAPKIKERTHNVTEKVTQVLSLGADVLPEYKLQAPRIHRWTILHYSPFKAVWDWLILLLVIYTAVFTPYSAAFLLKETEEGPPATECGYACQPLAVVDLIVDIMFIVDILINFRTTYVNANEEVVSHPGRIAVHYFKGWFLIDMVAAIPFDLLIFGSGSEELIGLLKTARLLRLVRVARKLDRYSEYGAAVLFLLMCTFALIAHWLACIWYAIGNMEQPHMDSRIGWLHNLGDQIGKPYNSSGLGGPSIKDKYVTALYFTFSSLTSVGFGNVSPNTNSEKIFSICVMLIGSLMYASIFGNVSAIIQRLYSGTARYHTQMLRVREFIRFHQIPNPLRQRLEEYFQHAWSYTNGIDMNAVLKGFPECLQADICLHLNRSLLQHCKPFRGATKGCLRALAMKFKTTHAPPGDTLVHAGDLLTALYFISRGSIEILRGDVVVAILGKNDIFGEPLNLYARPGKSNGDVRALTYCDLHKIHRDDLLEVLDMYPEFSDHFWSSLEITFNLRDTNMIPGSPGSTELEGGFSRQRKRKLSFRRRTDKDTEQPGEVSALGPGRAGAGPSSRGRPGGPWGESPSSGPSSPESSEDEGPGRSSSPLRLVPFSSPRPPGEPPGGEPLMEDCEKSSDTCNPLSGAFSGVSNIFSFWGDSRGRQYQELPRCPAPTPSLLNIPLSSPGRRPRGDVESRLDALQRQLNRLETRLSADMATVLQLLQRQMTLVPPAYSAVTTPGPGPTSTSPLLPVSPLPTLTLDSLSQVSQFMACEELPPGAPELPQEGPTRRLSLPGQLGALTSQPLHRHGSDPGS
row,SMILES,"hERG current change (%, negative = inhibition) at 10uM [%]"
1,CC(C)CC1NC(=S)N(Cc2ccccc2)C1=O (stereo not shown),0.969
2,CN(CC(=O)Nc1c(Cl)cccc1Cl)C(=O)c1ccc(-n2cncn2)c([N+](=O)[O-])c1,5.71
3,COc1ccc2c(c1)/C(=N/OC(=O)c1cccs1)CCC2,-0.994
4,Cc1onc(-c2ccccc2Cl)c1C(=O)NNC(=O)c1ccc(F)cc1,5.81
5,CC1=Nc2ccccc2N=C(N)C1c1ccccc1 (stereo not shown),12.9
6,COC(=O)Cn1cc(C(=O)OC)c2ccccc21,-4.51
7,O=C(OCC1CC(c2ccccc2)=NO1)c1ccco1 (stereo not shown),23
8,CCOc1ccc2nc(NC(=O)C(NS(=O)(=O)c3cccc4nsnc34)C(C)C)sc2c1 (stereo not shown),3.06
9,O=C1NC(=O)/C(=C\c2ccccc2OCc2ccc([N+](=O)[O-])cc2)N1,-41.5
10,COc1cc(CCC(=O)Nc2ncc(C)s2)cc(OC)c1OC,6.18
11,CC(=O)N1N=C(c2cccs2)CC1c1cccc([N+](=O)[O-])c1 (stereo not shown),-51.6
12,CCCCOP(=O)(CN1CCOCC1)OCCCC,11.3
13,COc1ccccc1C(=O)COC(=O)C1CCN(S(=O)(=O)c2ccc(C)c(C)c2)CC1,11.7
14,COc1ccc(Cl)cc1NC(=O)N1CCN(S(C)(=O)=O)CC1,1.56
15,CCS(=O)(=O)c1ccc(-c2csc(-c3ccccc3Cl)n2)c(Cl)c1Cl,-4.77
16,Cc1cccnc1NC(=O)c1nn(C)c2c1CS(=O)(=O)c1ccccc1-2,5.7
17,Cc1ccccc1OCC(=O)Nc1cccc(Cl)c1C,11.9
18,CCSc1nc(N2CCOCC2)c2c(c1C#N)CC(C)(C)N(C)C2,-27.9
19,COCCCNC(=O)Cn1nnc(-c2ccc(NC(=O)c3ccccc3F)cc2)n1,-2.44
20,Cc1ccc2[nH]c(=O)c(CN(Cc3nnnn3Cc3ccccc3)C3CCCC3)cc2c1,7.16
21,O=C(OCC(=O)N1CCc2ccccc21)C1CCCN1S(=O)(=O)c1ccc(Cl)cc1 (stereo not shown),-17.8
22,O=C(CNC(=S)N(Cc1ccccc1)Cc1ccccc1F)NCCc1ccc(Cl)cc1,5.67

row,SMILES,"hERG current change (%, negative = inhibition) at 10uM [%]"
1,CCOc1ccc(NC2=NCC(=O)N2CCc2ccccc2)cc1.Cl,3.02
2,C=CCNC(=S)N1CCOCC1,-1.69
3,CC1CCc2nc(NC(=O)c3ccc(N4C(=O)CCC4=O)cc3)sc2C1 (stereo not shown),12.6
4,COc1cccc([C@@H]2CC=C(C(=O)O)[C@H](c3ccccc3F)N2S(=O)(=O)c2ccc(C)cc2)c1,10.9
5,Cc1cc(C(=O)Nc2cc(C(C)(C)C)on2)c(C)o1,17.2
6,CC(C)n1c(/N=C/c2ccccc2O)nc2ccccc21,19
7,COc1cccc(-n2c(SCC(=O)NC3CCCC3)nnc2-c2ccco2)c1,-73.7
8,Cc1ccccc1N(CC(=O)NCc1ccccc1)C(=O)CCC(=O)Nc1nccs1,11.8
9,CN1CCN(C(=O)Nc2ccccc2)CC1.O=C(O)C(=O)O,23.2
10,CCCCN1C(=O)C(=O)N(CC(=O)N2CCN(c3ccccc3)CC2)C1=O,3.67
11,O=C(Nc1nc2ccccc2[nH]1)C1CC(=O)N(c2ccc3c(c2)OCCO3)C1 (stereo not shown),-6.56
12,CC1CCN(S(=O)(=O)c2ccc(NC(=O)C3CC3)cc2)CC1,-4.45
13,Cc1cc([N+](=O)[O-])nn1CCCC(=O)O,5.95
14,O=C(CCc1c[nH]c2ccccc12)NC1CC1,14.1
15,Cn1cccc/c1=N\c1cccc[n+]1C.[I-],16.6
16,CSc1cccc(NC(=O)CCCNC(=O)c2ccc(Cl)cc2)c1,4.42
17,Cc1ccc(-n2cccn2)c(CN2CCCC(CNC(=O)c3ccc(F)cc3)C2)c1 (stereo not shown),-75.5
18,CCN(CC)S(=O)(=O)c1ccc2oc(Nc3ccc4c(c3)OCCO4)nc2c1,1.32
19,O=Cc1cn(Cc2ccc(F)cc2)c2ccccc12,13.7
20,COc1ccc(-n2c(SCC(=O)Nc3ccc(C(N)=O)cc3)nc3ccccc3c2=O)cc1OC,14.1
21,O=C(CN1C2CCCC1CC(NC(=O)c1ccccc1)C2)Nc1nccs1 (stereo not shown),-46
22,CCOc1ccc(CCNC(=O)c2cc3c(C)nccc3[nH]c2=O)cc1OCC,-24.8

row,SMILES,"hERG current change (%, negative = inhibition) at 10uM [%]"
1,CCN(C(=S)Nc1cccnc1)c1cccc2ccccc12,9.76
2,Cc1csc(NC(=O)c2cc3c(s2)CCCC3)n1,-20.9
3,O=S(=O)(Nc1nc2ccccc2nc1Cl)c1cccc(C(F)(F)F)c1,6.43
4,COc1ccc(/C=N/NC(=O)c2cccc(COCC(F)(F)C(F)F)c2)cc1,-35.8
5,O=C(c1ccc2c(c1)OCO2)C1CCCN(Cc2ccc3nsnc3c2)C1 (stereo not shown),-71.4
6,O=C(COC(=O)CCc1nc2ccccc2c(=O)[nH]1)Nc1ccc2c(c1)OCO2,0.358
7,COc1ccc(-c2nnc(SC(C)C#N)o2)cc1 (stereo not shown),-8.79
8,COc1ccc(/C=N/Nc2ccc([N+](=O)[O-])cc2)cc1O,10.1
9,COc1ccc(O[C@@H]2O[C@H](COC(C)=O)[C@@H](OC(C)=O)[C@H](OC(C)=O)[C@H]2NC(C)=O)cc1,-10.7
10,O=C(NCC1COc2ccccc2O1)c1ccc(Cl)c(S(=O)(=O)N2CCCC2)c1 (stereo not shown),-15.1
11,CCCCN(C(=O)CN1CCOCC1)c1c(N)n(CC(C)C)c(=O)[nH]c1=O,-0.315
12,Cc1ccc2nc(C)c(C)nc2c1N,8.1
13,Cc1cccc(C)c1NC(=O)C1CCCN1C(=O)Nc1cccc(F)c1 (stereo not shown),8.23
14,COc1ccc(NC(=O)C2CCCN2C(=O)OC(C)(C)C)cc1 (stereo not shown),14.5
15,COc1cccc(/C(O)=C/c2nc3ccc(C(=O)NCCc4cccc(C)c4)cc3[nH]c2=O)c1,10
16,Cc1ccc(NC(=S)NCCc2c[nH]c3ccccc23)cc1,-1.12
17,C=C(C)C1CC=C(C)/C(=N\NC(=O)CCc2ccccc2)C1 (stereo not shown),13.4
18,O=C(c1ccco1)N1CCN(C(=O)c2ccc(COc3ccc(Cl)cc3Cl)o2)CC1,-70.4
19,COc1ccc(CCN2C(=O)CC(Cc3ccccc3)C2=O)cc1OC (stereo not shown),-17.2
20,C=CCn1c(NS(=O)(=O)c2ccccc2)c(S(=O)(=O)c2ccc(C)cc2)c2nc3ccccc3nc21,-2.63
21,CCN(CC)CCCN=C(C)c1c(O)n(-c2ccc(C)cc2)c(=O)[nH]c1=O,15.1
22,COC(=O)c1cccc([N+](=O)[O-])c1CN1CCCC(C(N)=O)C1 (stereo not shown),18.4

row,SMILES,"hERG current change (%, negative = inhibition) at 10uM [%]"
1,COc1ccc(CCc2[nH+]c(C)ccc2O)cc1.[Cl-],21.4
2,Cn1c(=O)oc2cc(S(=O)(=O)Nc3cccc(F)c3)ccc21,6.89
3,Cc1cccc(COCCN2CCN(S(=O)(=O)c3ccccc3)CCC2=O)c1,-1.2
4,COC(=O)[C@@]1(Cc2ccc(F)cc2)[C@H]2c3cc(C(=O)N(C)C)[nH]c3C[C@H]2CN1C(=O)c1ccccc1,-27.9
5,CCOC(=O)c1c(OCCO)nn(-c2ccccc2)c1N,14.1
6,CCc1ccc(NC(=O)CSc2nc3nc(C)cc(C)n3n2)cc1,-9.14
7,O=C(NCc1ccccc1)C(=O)NCC1COc2ccccc2O1 (stereo not shown),-4.02
8,CCCCn1c(N)c(N(CC(C)C)C(=O)CN2C(=O)C3CCCCC3C2=O)c(=O)[nH]c1=O (stereo not shown),2.81
9,CCOc1ccc2ccccc2c1/C=N/NC(=O)c1ccncc1,0.0781
10,Cc1cccc2c(N=O)c(O)[nH]c12,13.5
11,CCN1C(=O)[C@H]2[C@@H](c3ccc(-c4ccccc4)c(OC)c3)N[C@@](Cc3ccccc3)(C(=O)OC)[C@H]2C1=O.O=C(O)C(F)(F)F,5
12,O=C(CSc1nnc(-c2ccc(Cl)cc2)n1-c1ccc(Cl)cc1)N/N=C/c1ccccc1C(=O)O,8.64
13,Cc1ccn2c(=O)nc(SCC(=O)OCc3ccccc3)nc2c1,-15.4
14,N#CCOc1nc(N2CCOCC2)nc(N2CCOCC2)n1,8.05
15,O=C(N/N=C/c1cc(Br)cs1)C(O)c1ccccc1 (stereo not shown),3
16,Cc1cc(N2CCC(C)CC2)nc(-n2nc(C)cc2C)n1,-30.3
17,O=C(NCCS(=O)(=O)N1CCC2(CC1)OCCO2)c1ccccc1,5.06
18,Cc1cc(N=Nc2ccccc2C)ccc1N,7.14
19,CCOC(=O)c1[nH]c2ccc(OC)cc2c1NC(=O)CN1CCN(c2ccccn2)CC1,0.208
20,O=C(c1cccc(Cl)c1)N1CCC(c2nc3ccccc3[nH]2)CC1,-38.2
21,CC(C)(C)C(=O)Nc1nc2ccc(S(C)(=O)=O)cc2s1,6.28
22,NNC(=O)COc1ccc(F)cc1,9.33
